Publication PMC4336329 (PLoS ONE, 2015)
Among all 310,000 compounds or so, about 2,200 (0.71%) showed an effect of 50% or more. The effect is printed as a negative number. The list shows a part of the results.

molecular target: human ether-à-go-go-related gene (hERG) potassium channel (human, UniProt Q12809); experiment: primary screen, population patch clamp on CHO cells stably expressing hERG
Sequence (Q12809 whole entry, looked up): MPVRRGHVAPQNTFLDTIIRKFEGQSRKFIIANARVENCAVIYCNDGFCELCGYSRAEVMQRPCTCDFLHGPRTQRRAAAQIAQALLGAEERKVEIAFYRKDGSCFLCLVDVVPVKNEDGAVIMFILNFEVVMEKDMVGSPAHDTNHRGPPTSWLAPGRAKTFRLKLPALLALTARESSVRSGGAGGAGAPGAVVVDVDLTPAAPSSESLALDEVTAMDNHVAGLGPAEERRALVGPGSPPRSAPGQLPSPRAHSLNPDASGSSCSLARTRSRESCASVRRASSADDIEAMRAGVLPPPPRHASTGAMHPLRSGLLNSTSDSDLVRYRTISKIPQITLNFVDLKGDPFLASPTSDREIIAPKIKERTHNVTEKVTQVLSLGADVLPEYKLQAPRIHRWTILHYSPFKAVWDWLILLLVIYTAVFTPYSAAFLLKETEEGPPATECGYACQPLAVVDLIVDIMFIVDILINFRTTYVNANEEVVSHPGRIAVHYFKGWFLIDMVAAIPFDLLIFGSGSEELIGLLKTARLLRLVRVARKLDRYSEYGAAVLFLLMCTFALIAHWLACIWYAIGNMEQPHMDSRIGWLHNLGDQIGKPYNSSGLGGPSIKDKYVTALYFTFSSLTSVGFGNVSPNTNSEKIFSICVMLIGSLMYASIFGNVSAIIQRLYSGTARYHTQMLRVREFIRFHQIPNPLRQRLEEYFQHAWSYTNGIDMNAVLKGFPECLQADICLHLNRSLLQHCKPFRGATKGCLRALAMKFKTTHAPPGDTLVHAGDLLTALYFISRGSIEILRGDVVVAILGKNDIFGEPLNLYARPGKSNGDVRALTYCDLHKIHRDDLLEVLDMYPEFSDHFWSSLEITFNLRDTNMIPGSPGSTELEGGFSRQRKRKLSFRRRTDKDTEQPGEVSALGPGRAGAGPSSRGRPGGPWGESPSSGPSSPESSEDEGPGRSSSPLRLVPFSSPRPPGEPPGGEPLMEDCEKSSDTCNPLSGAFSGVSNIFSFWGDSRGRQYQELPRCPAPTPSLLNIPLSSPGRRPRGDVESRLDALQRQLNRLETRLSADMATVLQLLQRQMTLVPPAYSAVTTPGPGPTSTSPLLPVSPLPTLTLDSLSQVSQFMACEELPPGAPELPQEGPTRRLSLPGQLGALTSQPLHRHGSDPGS

| Structure (SMILES) | hERG current change (%, negative = inhibition) at 1uM [%] |
| --- | --- |
| O=C(O)c1ccccc1NC(=O)C1CCCO1 (centres unmarked) | 14.2 |
| Cc1cccc(OCC(=O)Nc2ncn[nH]2)c1C | 11.3 |
| O=S(=O)(Nc1ccc(N2CCOCC2)nn1)c1ccccc1 | 5.63 |
| COCCNC(=O)COC(=O)c1nsc(Cl)c1Cl | -1.11 |
| COc1ccc(CCN2C(=O)C3CC(C)=C(C)CC3C2=O)cc1OC (centres unmarked) | 4.22 |
| CN(CC(=O)Nc1cccc(F)c1)C(=O)Cn1c(=O)oc2ccccc21 | 13.6 |
| CCOc1ccccc1NC(=O)CCCNC(=O)Cn1cnc2sc(C)c(C)c2c1=O | 13.7 |
| CCC(CC)C(=O)NCCc1ccc(OC)c(OC)c1 | 11.9 |
| COc1ccc(CCC(C)NCc2ccc(Cl)c(Cl)c2)cc1 (centres unmarked) | 4.58 |
| CCCCNC(=O)N1CCN(S(C)(=O)=O)CC1 | 7.1 |
| CCOC(=O)c1[nH]c(C)c(CC(C)C)c1C | 15.2 |
| O=C1CCCc2ccccc2N1Cc1cccc(Cl)c1 | 1.68 |
| Clc1ccc(OCCn2cnc3ccccc32)cc1 | 3.04 |
| Fc1ccc(-[n+]2nc(Nc3ccccc3)sc2-c2ccc(OCc3ccccc3)cc2)cc1.[Cl-] | 9.81 |
| CCCCN1CC(=O)N2[C@H]3c4cc(C)ccc4OC[C@@H]3[C@H](C(=O)OCC)[C@]2(C)C1=O | 4.72 |
| COc1ccc(-c2cc(C(=O)NCCN3CCOCC3)no2)cc1OC | 15 |
| Cc1occc1C(=O)N/N=C/C1=C(N2CCOCC2)C(=C\c2ccc(Cl)cc2Cl)/CC1 | 22.2 |
| CCCCCCn1c(=O)c(C(=O)Nc2nc(CC(=O)OCC)cs2)c(O)c2ccccc21 | 12.5 |
| COCCN(C(=S)Nc1cc(C)cc(C)c1)C(C)c1cccnc1 (centres unmarked) | -4.04 |
| COc1ccc(Nc2nc(N)nc(CSc3nccn3C)n2)cc1 | 1.75 |
| CC(=O)Nc1cccc(NC(C)=O)n1 | 11.8 |
| Cc1ccc(-c2noc(C3CCN(C(=O)Nc4ccc(C#N)cc4)CC3)n2)o1 | -32.2 |
| Cc1nc(SCC(=O)NCCc2ccccc2)n[nH]1 | 8.05 |

| Structure (SMILES) | hERG current change (%, negative = inhibition) at 1uM [%] |
| --- | --- |
| C/C(=N/NC(=O)CNC(=O)/C=C/c1ccccc1)c1ccco1 | 10.7 |
| COc1cc(/C=C2/SC(=S)N(CC3CCCO3)C2=O)ccc1O (centres unmarked) | 13.9 |
| O=C(Cn1cc(C(=O)C(F)(F)F)c2ccccc21)N1CCOCC1 | 14.4 |
| CCCCn1c(=O)[nH]c2ccccc21 | 10.3 |
| COc1ccc(NC(=O)COc2ccccc2F)cc1S(=O)(=O)N1CCCCC1 | 8.72 |
| CC1CCCN(C(=O)C2CCC(CNc3c(N4CCCCC4)c(=O)c3=O)CC2)C1 (centres unmarked) | -1.43 |
| O=C(COC(=O)C1CCN(c2ccc(C(F)(F)F)cn2)CC1)Nc1ccc(F)cc1[N+](=O)[O-] | 15.1 |
| COc1ccc2cnnc(SCC(=O)Nc3ccccc3)c2c1OC | -6.53 |
| O=C(Nc1ccc(Cl)c(Cl)c1)c1ccco1 | 13.4 |
| CC1CC(C)CN(S(=O)(=O)c2ccc3c(c2)CCN3C(=O)C2CC2)C1 (centres unmarked) | 7.95 |
| Cc1ccc(NC(=O)c2cc(-c3ccco3)nc3ccccc23)cc1S(=O)(=O)N1CCOCC1 | 11 |
| Cc1cccc(N2CC(C(=O)Nc3ccc(S(=O)(=O)NCC4CCCO4)cc3)CC2=O)c1C (centres unmarked) | 17.3 |
| CCOC(=O)c1cnc(/N=C/N(C)C)s1 | 6.56 |
| O=C(NC1CCS(=O)(=O)C1)c1cnccn1 (centres unmarked) | 25.6 |
| COc1ccc(CCN(Cc2nc3ccccc3c(=O)[nH]2)C(=O)C2CC2)cc1 | 10.3 |
| O=C(O)CN(Cc1ccccc1)S(=O)(=O)c1ccc(F)cc1 | 14.6 |
| On1c(-c2ccccc2Cl)nc2ncccc21 | 10.4 |
| COc1ccc(-c2nc3cnccn3c2NCc2ccccc2)cc1SC1CCCCC1.O=C(O)C(F)(F)F | 11.5 |
| O=C(/C=C/c1ccccc1Cl)c1ccc(O)cc1 | 9.98 |
| Cc1c(C)n(C)c2ccc(C(=O)NCCCN3CCN(c4ccc(F)cc4)CC3)cc12 | -11.4 |
| CC1CCCCN1CCNC(=O)C1CCN(S(=O)(=O)N2CCCCC2)CC1 (centres unmarked) | 8.49 |
| O=C1CSCC(=O)N1c1ncc(C(F)(F)F)cc1Cl | 12.1 |
| Cc1ccc(SCc2noc(-c3c(C)noc3C)n2)cc1 | 2.27 |

| Structure (SMILES) | hERG current change (%, negative = inhibition) at 1uM [%] |
| --- | --- |
| Cc1ccc(C(=O)NC2CC(C)(C)NC(C)(C)C2)c(C)c1 | 10.5 |
| O=C(NCCNc1ccc([N+](=O)[O-])cc1C(F)(F)F)c1ccc(F)cc1 | -1.03 |
| Cc1cc(Nc2cccc(Cl)c2Cl)n2ncnc2n1 | 11.3 |
| O=C(CSc1nccn1Cc1ccco1)Nc1ccccc1 | 11.6 |
| CCOc1ccc(NC(=O)C2CC(=O)NC(N3CCc4ccccc43)=N2)cc1 (centres unmarked) | 6.62 |
| CCCC(=O)Nc1ccc(NC(=O)c2ccccc2Cl)nc1 | 9.41 |
| CCC(=O)Nc1cccc(NC(=O)c2ccccc2Br)c1 | 3.69 |
| Cc1ccc(-c2csc(NC(=O)C3CSC4(C)CCC(=O)N34)n2)cc1 (centres unmarked) | 11.6 |
| COc1ccc(N2C(=NC(=O)C3CCCO3)SC3CS(=O)(=O)CC32)cc1 (centres unmarked) | 13.1 |
| CC(C(=O)NCC(=O)Nc1ccc(F)c(F)c1F)N1CCN(c2ccc(O)cc2)CC1 (centres unmarked) | 4.56 |
| C/C=C/c1ccc(OCC(=O)O)c(OC)c1 | 15.2 |
| O=C(CS(=O)(=O)c1cn(Cc2ccc(Cl)cc2)c2ccccc12)N1CCCC1 | 4.17 |
| CCN1CCN(C(=S)Nc2cc(S(=O)(=O)N(CC)CC)ccc2C)CC1 | 8.19 |
| O=c1ncn(-c2cccc([N+](=O)[O-])c2)c2ccccc12 | 0.955 |
| CC(NC(=O)C1CCN(S(=O)(=O)c2ccc3c(c2)NC(=O)CO3)CC1)c1ccccc1 (centres unmarked) | -8.13 |
| COc1ccc(OCC(=O)NNC(=O)c2cccs2)cc1 | 9.13 |
| CC(/C=N/n1c(COc2ccccc2)n[nH]c1=S)=C\c1ccccc1 | 10.2 |
| COC(=O)c1c(C)[nH]c(C(=O)C(C)OC(=O)c2cc(C)oc2C)c1C (centres unmarked) | 1.12 |
| COc1ccc(S(=O)(=O)N2CCNCC2)cc1 | 5.56 |
| O=C(COc1ccccc1)NC(NC(=S)Nc1ccccc1O)C(Cl)(Cl)Cl (centres unmarked) | 17.3 |
| Cc1nc(-c2ccccc2)sc1C1(C)CC(c2cccc(F)c2)=NO1 (centres unmarked) | 12.6 |
| COc1cccc(Nc2ncnc3sccc23)c1 | 16.9 |
| C=C(C)Cn1c(SCC)nc2ccccc2c1=O | 3.34 |

| Structure (SMILES) | hERG current change (%, negative = inhibition) at 1uM [%] |
| --- | --- |
| COc1ccc(-c2cc(C(=O)N3CCCC3)c3ccccc3n2)cc1OC | 9.37 |
| Cc1ccc(CN(CC(=O)NCCc2ccccc2)C(=O)CCCC(=O)Nc2cc(C)on2)cc1 | -15 |
| O=C(CSc1nnc(-c2ccc(O)cc2)n1Cc1ccco1)c1ccccc1 | 5.2 |
| Cc1ccc(CNC(=O)c2ccc3c(=O)n(CC4CCCO4)c(=S)[nH]c3c2)cc1 (centres unmarked) | -3.16 |
| Cc1nc2sc3c(c2c(=O)[nH]1)CCCCC3 | 5.7 |
| CCOc1cc(C(C#N)N2CCOCC2)ccc1OC (centres unmarked) | 9.2 |
| CCOc1ncccc1C(=O)Nc1ccc(F)c(F)c1 | 5.21 |
| Cc1ccsc1C(=O)N1CCC(CO)(Cc2ccccc2)CC1 | 4.1 |
| O=C(CSc1nnc2ccccn12)NCc1ccco1 | 24.9 |
| Cc1ccc(C(=O)NCc2ccc(N3CCN(C)CC3)cc2)cc1C | 9.65 |
| Cc1cccc(NC(=O)c2cc(S(=O)(=O)N3CCCC3)cn2C)c1 | 13.2 |
| Cc1nn(-c2ccccc2)c2c1C(c1ccc([N+](=O)[O-])cc1)N1C(=N2)C(=O)Nc2ccccc21 (centres unmarked) | -2.47 |
| CC1=C(C(N)=O)C(c2ccccn2)n2nc(SCc3ccccc3)nc2N1 (centres unmarked) | 1.07 |
| COc1cc(NC(=O)NCC2CCN(Cc3ccccc3C)CC2)cc(OC)c1OC | 8.38 |
| CCOC(=O)Cn1c(-c2ccccc2)nc2ccccc2c1=O | -1.44 |
| C=CCn1cccc(C(=O)Nc2ccc(OC)cc2OC)c1=O | 13.7 |
| CN(CC1CCCO1)S(=O)(=O)c1ccc(C(=O)Nc2nc3cc4c(cc3s2)OCO4)cc1 (centres unmarked) | 7.58 |
| COc1cc(OC)cc(-n2nnnc2SCC(=O)N2CCCC2)c1 | -11.2 |
| CN(C)c1ccc(/C=N/NC(=S)NCc2ccco2)cc1 | 4.56 |
| O=C(Cn1nnc(-c2cccc(C(F)(F)F)c2)n1)N1CCOCC1 | -3.38 |
| N#C/C(=C\c1ccccc1)C(=O)N1CCN(c2ccccc2F)CC1 | 15.3 |
| CC(C)NC(=O)CCCn1c(=S)[nH]c2cc3c(cc2c1=O)OCO3 | 4.4 |
| CCOc1cccc2cc(C(=O)NCc3ccc(C)cc3)c(=N)oc12 | 11.6 |
